Measured values as given in publication PMC4336329 (PLoS ONE, 2015).
Among all 310,000 compounds or so, about 2,200 (0.71%) showed an effect of 50% or more. The effect is printed as a negative number. Some of the results follow.

What follows are molecules tested against human ether-à-go-go-related gene (hERG) potassium channel (human, UniProt Q12809) (assay: primary screen, population patch clamp on CHO cells stably expressing hERG).
Sequence of human ether-à-go-go-related gene (hERG) potassium channel (Q12809 whole entry, looked up): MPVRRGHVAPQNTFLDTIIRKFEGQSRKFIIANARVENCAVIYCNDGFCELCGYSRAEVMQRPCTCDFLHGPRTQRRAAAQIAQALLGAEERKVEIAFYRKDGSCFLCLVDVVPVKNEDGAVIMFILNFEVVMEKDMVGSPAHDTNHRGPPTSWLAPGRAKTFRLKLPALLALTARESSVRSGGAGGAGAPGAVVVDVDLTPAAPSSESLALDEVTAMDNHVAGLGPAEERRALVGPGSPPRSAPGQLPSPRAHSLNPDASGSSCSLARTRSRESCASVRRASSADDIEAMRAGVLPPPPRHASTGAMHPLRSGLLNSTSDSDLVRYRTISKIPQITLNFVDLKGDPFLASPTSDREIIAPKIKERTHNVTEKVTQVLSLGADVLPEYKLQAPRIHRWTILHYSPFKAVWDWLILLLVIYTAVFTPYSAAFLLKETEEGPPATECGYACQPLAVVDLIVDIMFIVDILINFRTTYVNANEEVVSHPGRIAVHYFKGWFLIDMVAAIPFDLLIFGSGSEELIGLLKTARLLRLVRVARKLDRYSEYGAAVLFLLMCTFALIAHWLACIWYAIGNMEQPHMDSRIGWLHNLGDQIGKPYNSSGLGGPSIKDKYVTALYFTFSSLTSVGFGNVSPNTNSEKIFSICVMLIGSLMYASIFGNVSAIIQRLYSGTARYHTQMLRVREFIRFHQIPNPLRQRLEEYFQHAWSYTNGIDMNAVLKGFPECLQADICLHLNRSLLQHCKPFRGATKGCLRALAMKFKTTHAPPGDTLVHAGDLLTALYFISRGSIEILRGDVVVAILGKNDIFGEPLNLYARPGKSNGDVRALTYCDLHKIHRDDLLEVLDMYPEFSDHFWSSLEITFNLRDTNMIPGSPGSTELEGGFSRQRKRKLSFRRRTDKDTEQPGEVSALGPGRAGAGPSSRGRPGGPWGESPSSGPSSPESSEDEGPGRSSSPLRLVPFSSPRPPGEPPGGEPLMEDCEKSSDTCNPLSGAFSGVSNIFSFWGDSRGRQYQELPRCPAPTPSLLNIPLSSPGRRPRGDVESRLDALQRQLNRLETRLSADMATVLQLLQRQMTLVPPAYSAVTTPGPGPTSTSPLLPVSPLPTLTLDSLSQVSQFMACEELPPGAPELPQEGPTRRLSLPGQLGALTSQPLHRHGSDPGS

| Compound | hERG current change (%, negative = inhibition) at 1uM |
| --- | --- |
| CC(=O)c1c(C)[nH]c(C(=O)COC(=O)c2cccnc2Cl)c1C | -2.91% |
| Nc1ccc(C(=O)N/N=C2\CCCc3c2[nH]c2ccccc32)cc1 | 13% |
| CN(CCC#N)Cc1cc(=O)oc2ccc3ccccc3c12 | 4.99% |
| CC(C)(C)n1nnnc1C(c1ccc(F)cc1)N1CCC(C(N)=O)CC1.Cl (stereo not drawn) | 8.48% |
| Cc1c(C(=O)CN2CCOCC2)[nH]c2ccccc12 | 5.75% |
| COc1ccc(CN(C(=O)c2nsc(Cl)c2Cl)C(C(=O)NC2CCCC2)c2ccc(C)cc2)cc1 (stereo not drawn) | 10.9% |
| Nc1c(C(=O)Nc2ccc(Br)cc2)sc2nc(-c3ccco3)ccc12 | 9.85% |
| CS(=O)(=O)c1ccc(Cl)c(NC(=O)Nc2ccccc2)c1 | 9.36% |
| COc1ccc(Cc2nnc(Nc3ccc(C)cc3C)[nH]c2=O)cc1 | 15.2% |
| Brc1ccc(OCc2ccccc2)c(CNCc2ccncc2)c1.Cl | -3.74% |
| O=c1[nH]c(=O)n(-c2ccc(Br)cc2)c(O)c1C=NCCN1CCCCC1 | 9.54% |
| CCN(CC)CCOc1ccc(Br)cc1 | -16% |
| O=C(CSc1ncn[nH]1)Nc1ccccc1Sc1ccccc1 | -4.1% |
| c1ccc(NCc2nc3ccccc3n2CCOc2ccccc2)cc1 | 12.7% |
| Cc1ccc(NC2c3ncccc3C(=O)N2C2CCCCC2)cc1C (stereo not drawn) | -5.97% |
| COc1cccc(CC(=O)OC(C)C(=O)Nc2ccc(Cl)cn2)c1 (stereo not drawn) | 10.8% |
| O=C(CCCNC(=O)c1ccc(Cl)cc1)Nc1ccc(S(=O)(=O)Nc2ncccn2)cc1 | 4.85% |
| O=C(N/N=C/c1ccc(Cl)cc1)c1nc2ccc([N+](=O)[O-])cc2c(=O)[nH]1 | 4.25% |
| Cc1cc(C)c2c(C(C)(C)C)nn(-c3ccccc3)c2n1 | 8.49% |
| CC(C)Oc1ccc(CC(=O)NNC(=S)Nc2ccccc2)cc1 | 0.114% |
| CCc1noc(C)c1C(=O)Nc1nc(-c2ccc(OC)c(OC)c2)cs1 | 5.32% |
| Cc1sc2ncnc(OCC(=O)NC3CCS(=O)(=O)C3)c2c1C (stereo not drawn) | 17.4% |

| Compound | hERG current change (%, negative = inhibition) at 1uM |
| --- | --- |
| Cc1ccc(N(CC(=O)NN=C2CCN(C)CC2)S(=O)(=O)c2ccccc2)c(C)c1 | 4.31% |
| CCCn1c(=S)[nH]c2cc(OC)c(OC)cc2c1=O | -4.22% |
| CCOC(=O)c1ccccc1NC(=O)c1ccc(Cl)c(S(=O)(=O)N2CCOCC2)c1 | 1.44% |
| Cn1c(CNC(=O)CCNC(=O)c2cccc(F)c2)cc(=O)n(C)c1=O | 12.3% |
| CC(=O)Oc1ccc(/C=C2/SC(=S)N(Cc3ccccc3)C2=O)cc1 | 9.24% |
| COc1ccccc1NC(=O)CN(Cc1ccccc1)S(C)(=O)=O | 10% |
| O=C(COC(=O)CCN=C1NS(=O)(=O)c2ccccc21)NNC(=O)c1ccc(Cl)cc1 | 3.49% |
| COc1ccc2[nH]cc(C(=O)C(=O)N3CCCCC3)c2c1 | 0.615% |
| CCC1=C(OC(=O)N(CC)CC)N2C(=O)OC(=NCC(=O)OC)[C@]2(Cc2ccccc2)[C@H]2C1=CC[C@H]1C(=O)N(CC(=O)OC)C(=O)[C@H]12 | -0.264% |
| Cc1cccc(NS(=O)(=O)c2nnc(NC(=O)c3ccccc3F)s2)c1 | 10.7% |
| COc1cc2ccccc2cc1C(=O)Nc1cc(C)ccn1 | 11.6% |
| COc1ccc(C(C)NC(=O)C2C(=O)NC3(C)CC2c2ccccc2O3)cc1 (stereo not drawn) | 1.22% |
| CCN1CCN(CCNC(=O)c2ccc(/C=C3\Sc4ccccc4N(Cc4ccccc4F)C3=O)cc2)CC1 | -11.8% |
| CC(C)(C)NC(=O)Nc1ccccc1C(N)=O | 8.5% |
| COC(=O)CN1C(=O)C2(C(C#N)=C(N)Oc3cc(C)oc(=O)c32)c2ccccc21 (stereo not drawn) | 17.2% |
| C=CCn1c(SCC(=O)NCc2ccc3c(c2)OCO3)nc2scc(-c3ccc(F)cc3)c2c1=O | 5.09% |
| CCOC(=O)C(CCCOc1ccc(C(C)CC)cc1)C(=O)OCC (stereo not drawn) | 11.6% |
| CC(C)C(CCNCc1ccccn1)c1ccc(Cl)cc1 (stereo not drawn) | -20.9% |
| N#Cc1cnn(-c2cccc(Cl)c2)c1-n1cccc1 | 13.7% |
| CC(C)c1ccc(S(=O)(=O)N2CCN(C(=O)CN3C(=O)NC4(CCCC4)C3=O)CC2)cc1 | 0.709% |
| Cc1cc(=O)n2[nH]cc(-c3ccccc3)c2n1 | 8.64% |
| O=C(Nc1cccc(OCC(=O)N2CCOCC2)c1)C1CCCCC1 | -1.54% |

| Compound | hERG current change (%, negative = inhibition) at 1uM |
| --- | --- |
| CCOc1cc(C#N)c(NC(=O)c2ccco2)cc1OCC | -0.599% |
| CC(NC(=O)CCc1ccccc1)c1cc2c(cc1Cl)OCCO2 (stereo not drawn) | 6.78% |
| O=C1CCCN1CCC1CCN(C(=O)Nc2ccccc2)CC1 | 2.38% |
| CCOC(=O)c1cc(C(=O)Nc2ccccc2F)nn1C | 1.77% |
| Cc1oc(-c2cccc(Cl)c2)nc1CS(=O)(=O)CC(=O)NCCN1CCOCC1 | 9.67% |
| c1ccc(CCN2CN=C(Nc3nc4ccccc4o3)NC2)cc1 | 6.18% |
| N#C/C(=C\c1ccc(N2CCCCC2)o1)C(N)=O | 15.8% |
| CC(C)CC(=O)Nc1ccccc1N1CCN(c2ccccc2)CC1 | 7.9% |
| Cc1cc(CNC(=O)Cn2cc([N+](=O)[O-])cn2)c2ccccc2n1 | 11.8% |
| Cc1ccc(C(=O)N2CCN(C(=O)c3ccco3)CC2)cc1NC(=O)c1ccco1 | -0.605% |
| COc1ccc(OC)c(N2C(=O)CCCC2=O)c1 | 13.8% |
| CCCC(=O)n1nc(-c2ccco2)nc1N | 13.2% |
| CCCOc1ccc(-c2nc(C#N)c(N3CCN(C)CC3)o2)cc1 | -3.25% |
| Cc1noc(C)c1COc1ccc(C(=O)Nc2ncccc2O)cc1 | 8.99% |
| Cc1ccc2nc(N(CCCN(C)C)C(=O)CS(=O)(=O)c3ccccc3)sc2c1.Cl | 11.5% |
| CCOC(=O)c1sc(N)c(C#N)c1CSc1nnc(C2CC2)n1N | 4.88% |
| COC(=O)CCC(=O)Nc1ccc(NC(C)=O)cc1 | 19.2% |
| COC(=O)c1sc2cc(C(F)(F)F)cnc2c1-c1ccccn1 | 10.4% |
| COc1ccc(NC(=O)c2ccc3nc(-c4ccccc4)c(-c4ccccc4)nc3c2)c(OC)c1 | 7.47% |
| Cc1ccnc(NC(=O)COC(=O)C2COc3ccccc3O2)n1 (stereo not drawn) | 3.9% |
| COC(=O)C1=C(C)NC2=C(C1c1ccc(O)cc1)S(=O)(=O)c1ccccc12 (stereo not drawn) | 11% |
| O=S(=O)(NCc1ccccc1)NCc1ccccc1F | 7.87% |

| Compound | hERG current change (%, negative = inhibition) at 1uM |
| --- | --- |
| C(=C\c1ccccc1)/CSc1nnc(-c2ccncc2)n1Cc1ccco1 | -26.9% |
| COc1cc(C(=O)NC2CCCc3ccccc32)cc(OC)c1C (stereo not drawn) | 14.7% |
| COc1ccc(-c2ccc(C#N)c(OC(=O)c3c(Cl)cccc3Cl)n2)cc1 | 18.6% |
| COc1ccc(N(C(C)C(=O)N2CCCC2)S(C)(=O)=O)cc1 (stereo not drawn) | 11.6% |
| c1ccc(Nc2nc(N3CCNCC3)nc(N3CCOCC3)n2)cc1 | -6.11% |
| CC(C)CN(CC(C)C)C(=O)CN1C(=O)NC2(CCCc3ccccc32)C1=O (stereo not drawn) | 14.5% |
| Cc1ccc(NC(=O)C(C)OC(=O)CCN=C2NS(=O)(=O)c3ccccc32)cc1 (stereo not drawn) | 5.52% |
| COc1cccc(OCc2cc(C(=O)NCc3ccc4c(c3)OCO4)no2)c1 | 8.78% |
| CCOC(=O)Cn1nc(C)c(-c2ccccc2)c1N | 11% |
| O=C(OCc1ccc(F)cc1)c1ccc2c(c1)-c1ccccc1C2=O | 19.7% |
| CCN(Cc1ccccc1)C(=O)C1CCN(C/C(C)=C/c2ccccc2)CC1.O=C(O)C(=O)O | -31% |
| N=C1/C(=C/c2ccc(OCc3ccccc3)cc2)C(=O)N=C2SC(CC(=O)N3CCOCC3)=NN12 | 10.2% |
| O=C(Nc1cccc(S(=O)(=O)C(F)F)c1)c1ccc(S(=O)(=O)N2CCOCC2)cc1 | 0.202% |
| CCCCCCSc1ccc([C@H]2N[C@@](CC(C)C)(C(=O)OC)[C@H]3C(=O)N(CC)C(=O)[C@@H]23)cc1.O=C(O)C(F)(F)F | 6.48% |
| COc1ccc(OCC(=O)Nc2cccc3cccnc23)cc1 | 5.87% |
| CCOc1ccc(NC(=O)CSc2nc(=O)n(CCCN3CCOCC3)c3c2CCC3)cc1 | 6.24% |
| C[C@@H](O)C(C(=O)N1CCNCC1)n1cc([C@@H](N)CCCCN)nn1 (stereo partly drawn) | 0.985% |
| CC(C)N(C)Cc1nnnn1CC(=O)N(C)Cc1ccc(F)cc1 | 2.39% |
| Cc1ccc(-n2[nH]c3c4c(ccc3c2=O)C(=O)c2ccccc2C4=O)cc1 | -1.5% |
| CC(=O)CCn1cc([N+](=O)[O-])nc1C | 14% |
| O=C(NCc1ccccc1Cl)C1CCCN(C(=O)Nc2ccc(F)cc2)C1 (stereo not drawn) | 3.62% |
